Source: PubChem BioAssay AID588342 (National Center for Advancing Translational Sciences (NCATS), 2011)
Hit rate of the full screen: of about 360,000 compounds, about 25,000 (6.9%) were called active. Inconclusive results, whose numbers are uncertain, are shown with a selection of clear calls. Calls follow the shape of the dose curve; as a rule, active = well fitted inhibition curve with a large enough effect; inconclusive = small, poorly fitted or top-dose-only effect; inactive = flat fitted curve, though single readings scatter. Potencies beside an inconclusive call are fits to weak or partial responses and may not hold up.

The compounds below were run against Luciferin 4-monooxygenase (Photinus pyralis) (UniProt P08659) (assay: qHTS profiling assay for firefly luciferase inhibitor/activator using purifed enzyme and Km concentrations of substrates (counterscreen for miR-21 project)). Conditions: purified FLuc, luminescence inhibition; series mostly up to 57.5 µM; activity change, negative = inhibition: at the top concentration.
UniProt P08659, sequence (P08659 whole entry, looked up): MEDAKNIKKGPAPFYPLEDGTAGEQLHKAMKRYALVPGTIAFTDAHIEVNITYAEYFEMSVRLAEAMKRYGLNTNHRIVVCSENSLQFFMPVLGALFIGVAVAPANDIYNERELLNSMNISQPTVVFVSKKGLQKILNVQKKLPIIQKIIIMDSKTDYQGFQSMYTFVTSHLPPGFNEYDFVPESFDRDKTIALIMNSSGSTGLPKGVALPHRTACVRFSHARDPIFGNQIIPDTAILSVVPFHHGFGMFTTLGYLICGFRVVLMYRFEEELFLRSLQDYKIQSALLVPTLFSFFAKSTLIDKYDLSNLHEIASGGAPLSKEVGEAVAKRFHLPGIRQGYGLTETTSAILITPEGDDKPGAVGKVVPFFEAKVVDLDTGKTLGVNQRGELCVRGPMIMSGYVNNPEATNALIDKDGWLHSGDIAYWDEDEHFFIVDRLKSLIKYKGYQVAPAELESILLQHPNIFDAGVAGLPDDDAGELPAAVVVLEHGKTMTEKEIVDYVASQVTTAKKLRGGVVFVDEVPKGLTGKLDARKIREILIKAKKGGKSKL
Outline: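 Biochemical qHTS of compounds, final roughly 60 µM downward over six points, against 10 nM purified firefly luciferase using Km concentrations of substrates (10 uM D-luciferin, 10 uM ATP) in Tris acetate pH 7.5 buffer; luminescence output.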
Also: nearly all actives have a fitted effect of over 55% in size.
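For activity change, negative = inhibition in this document: plate controls were vehicle for no effect and reference inhibitor for full effect.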
Potency is read from the fitted curve at half-maximal effect; tags tell the direction and shape of the fitted curve.

| SMILES | Potency | activity change, negative = inhibition |
| --- | --- | --- |
| O=C1c2ccccc2-c2onc3ccc(NCCCn4ccnc4)c1c23 | inconclusive: 30.1 µM [inhibitor, single point] | – |
| O=C(CCCn1c(=S)[nH]c2cc3c(cc2c1=O)OCO3)N1CCN(c2ccccc2F)CC1 | – | inactive: -0.885% |
| Cc1coc2c(O)cc3c(c12)OC1(N2CCCCC2)C(=O)NCCCC31 (centres undefined) | inconclusive: 33.8 µM [inhibitor, partial curve, poor fit] | – |
| Oc1ccc(Br)cc1C=Nc1ccc2c3c(cccc13)CC2 | inconclusive: 33.8 µM [inhibitor, single point] | – |
| CCC(C)(C)NC(=O)C(c1ccc(F)cc1)N(Cc1ccc(OC)cc1)C(=O)c1cnccn1 (centres undefined) | inconclusive: 23.9 µM [inhibitor, partial curve, poor fit] | – |
| N#Cc1c(/N=C\c2ccc(O)c([N+](=O)[O-])c2)sc2c1CCCC2 | inconclusive: 12 µM [inhibitor, partial curve, poor fit] | – |
| Cc1ccc(/C=N/NC(=O)Cc2ccc(O)cc2)s1 | inconclusive: 21.3 µM [inhibitor, single point] | – |
| O=C(N/N=C/c1ccc(N2CCOCC2)o1)c1cccc(C(F)(F)F)c1 | inconclusive: 37.9 µM [inhibitor, partial curve, poor fit] | – |
| O=C(O)c1cccc(N2C(=O)c3cccc4c(Cl)ccc(c34)C2=O)c1 | inconclusive: 37.9 µM [inhibitor, partial curve, poor fit] | – |
| COc1cc2c(cc1NC(=O)CSc1cccc[n+]1[O-])oc1ccccc12 | inconclusive: 30.1 µM [inhibitor, partial curve, poor fit] | – |
| CC(C)[C@@H](C(=O)N1CCCC1)N1C(=O)N2CCc3c([nH]c4ccccc34)[C@@]2(C)C1=O | – | inactive: 1.83% |
| Nc1[nH]ncc1N=Nc1ccc(Cl)cc1 | active: 13.5 µM | – |
| CCOc1ccc(-n2nc3ccc(NC(=O)CC)cc3n2)cc1 | active: 2.69 µM | – |
| Cc1[nH]c2ccccc2c1/C=N/Nc1nc(Nc2ccc(F)cc2)nc(N2CCOCC2)n1 | active: 16.9 µM | – |
| Brc1ccccc1Cn1cnc2ccccc21 | – | inactive: 1.85% |
| O=C(Cc1ccc(S(=O)(=O)N2CCCC2)s1)Nc1nc2c(s1)CCCC2 | inconclusive: 23.9 µM [inhibitor, partial curve, poor fit] | – |
| Cc1ccc(C(=O)NC2=NCCS2)cc1Cl | active: 6.75 µM | – |
| CC(C)CCN1CC(O)=C(c2nc3ccccc3[nH]2)C1=N | inconclusive: 19 µM [inhibitor, partial curve, poor fit] | – |
| COc1ccc(-c2ccc(SCC(=O)N3CCCC3)nn2)cc1OC | inconclusive: 13.5 µM [inhibitor, partial curve] | – |
| CCOC(=O)c1cnc2ccccc2c1Nc1cc(C(=O)O)ccc1C | inconclusive: 16.9 µM [inhibitor, partial curve] | – |
| O=C(Nc1ccc(-c2noc(CCc3ccccc3)n2)cc1)c1cccnc1 | inconclusive: 13.5 µM [inhibitor, partial curve] | – |
| COc1ccc(/C=N/N2C(=N)SCC2=O)cc1 | active: 3.38 µM | – |
| CS(=O)(=O)c1ccccc1-c1nc(-c2cccc(Cl)c2)no1 | inconclusive: 21.3 µM [inhibitor, single point] | – |

| SMILES | Potency | activity change, negative = inhibition |
| --- | --- | --- |
| Cc1cc(-c2onc(C)c2C(=O)O)no1 | – | inactive: -1.09% |
| COc1ccccc1C(=O)Nc1nc2nc(-c3ccccc3)cc(=O)n2[nH]1 | inconclusive: 9.53 µM [inhibitor, partial curve] | – |
| COCCCNC(=S)N1CCN(c2nc(-c3ccccc3)cs2)CC1 | inconclusive: 19 µM [inhibitor, partial curve, poor fit] | – |
| Cc1ccc2c(CNCc3ccccc3)cc(=O)oc2c1 | – | inactive: -3.33% |
| O=S(=O)(N/N=C1/CCCc2ccccc21)c1ccc(Br)cc1 | inconclusive: 8.49 µM [inhibitor, single point] | – |
| O=C1Nc2ccccc2/C1=C/c1ccccc1F | inconclusive: 21.3 µM [inhibitor, single point] | – |
| Cc1ccccc1NS(=O)(=O)c1ccc2[nH]cc(C(=O)NC(C)c3ccccc3)c(=O)c2c1 (centres undefined) | inconclusive: 30.1 µM [inhibitor, single point] | – |
| Cc1cc(C)c2c(=O)n(CC(=O)N3CCC(N4CCCCC4)CC3)sc2n1 | inconclusive: 9.53 µM [inhibitor, partial curve] | – |
| Cc1cccc(Nc2nn3c(=O)c4ccccc4nc3s2)c1 | inconclusive: 0.757 µM [inhibitor, full curve] | – |
| Cc1cc(Cl)ccc1OCC(=O)NNC(=O)c1ccco1 | active: 9.53 µM | – |
| Cc1ccc(-c2noc(-c3ccc(NCc4ccco4)c([N+](=O)[O-])c3)n2)cc1 | inconclusive: 37.9 µM [inhibitor, partial curve, poor fit] | – |
| COC(=O)c1cc(-c2ccccc2)nc2nc(SC)[nH]c(=O)c12 | inconclusive: 23.9 µM [inhibitor, single point] | – |
| Cc1cc(N=Nc2ccccc2C(=O)O)c(C)c(C)c1O | inconclusive: 37.9 µM [inhibitor, single point] | – |
| O=C(CSc1nc2ccccc2o1)N/N=C/c1ccccc1 | – | inactive: -1.54% |
| CN(C(=O)COC(=O)c1ccccc1SCC(=O)N1CCCC1)C1(C#N)CCCCC1 | inconclusive: 30.1 µM [inhibitor, partial curve, poor fit] | – |
| COc1ccc(-c2nc(C)c(CCNC(=O)C(=O)Nc3ccccc3C#N)s2)cc1OC | – | inactive: 2.88% |
| CN(C)c1cccc(NC(=O)c2cccc3ccccc23)c1 | inconclusive: 21.3 µM [inhibitor, single point] | – |
| COc1ccc(NC(=O)C(=O)c2cn(CC(=O)N3CCOCC3)c3ccccc23)cc1OC | inconclusive: 26.9 µM [inhibitor, partial curve, poor fit] | – |
| CCCC/C(O)=N\S(=O)(=O)c1ccc(N=NN(C)C)cc1 | – | inactive: -0.67% |
| COc1ccc(CC(=O)N2CCc3ccccc32)cc1 | inconclusive: 19 µM [inhibitor, single point] | – |
| O=C(Nc1cccc(-c2nc3ccccc3o2)c1)c1cc([N+](=O)[O-])ccc1N1CCOCC1 | inconclusive: 4.26 µM [inhibitor, partial curve, poor fit] | – |
| CCn1c(C)nc2cc(C(=O)NNC(=S)NC(=O)c3ccccc3)ccc21 | inconclusive: 9.53 µM [inhibitor, partial curve, poor fit] | – |
| COc1ccc(-c2cnc(N)n2CC2CCCO2)cc1 (centres undefined) | inconclusive: 21.3 µM [inhibitor, partial curve, poor fit] | – |

| SMILES | Potency | activity change, negative = inhibition |
| --- | --- | --- |
| CC(=O)c1ccc(N2CCN(C(=O)CCS(=O)(=O)c3ccc4c(c3)NC(=O)CS4)CC2)cc1 | – | inactive: -14% |
| COC(=O)CC1Oc2ccc(F)cc2-n2cc(-c3ccc(Cl)cc3)nc21 (centres undefined) | – | inactive: -1.94% |
| COc1ccc(-c2nc3c4cnn(-c5ccccc5F)c4ncn3n2)cc1 | inconclusive: 0.675 µM [inhibitor, full curve] | – |
| Cc1ccc(NC(=O)c2cn(-c3cccc(C)n3)cn2)cc1 | inconclusive: 3.01 µM [inhibitor, full curve] | – |
| CCc1cccc2c(/C=N/NC(=O)c3cccc(S(=O)(=O)Nc4ccccc4Cl)c3)c[nH]c12 | inconclusive: 26.9 µM [inhibitor, single point] | – |
| CCN(CC)c1ccc(/C=N/Nc2nc(C)cc(=O)[nH]2)cc1 | active: 19 µM | – |
| CCOC(=O)c1ccc(NC(=O)CCS(=O)(=O)c2ccc(C)cc2)cc1 | – | inactive: -0.943% |
| NNc1nc2c(Cl)cccc2s1 | inconclusive: 37.9 µM [inhibitor, partial curve, poor fit] | – |
| COc1cc(OC)cc(C(=O)Nc2sc3c(c2C(N)=O)CCC3)c1 | – | inactive: -16.8% |
| COc1cc(O)ccc1C1CC(=O)Nc2c1c(=O)nc(SCc1ccccc1C)n2C (centres undefined) | inconclusive: 19 µM [inhibitor, partial curve, poor fit] | – |
| COc1ccc(Cl)cc1-n1c(N)c(C(N)=O)sc1=S | inconclusive: 23.9 µM [inhibitor, partial curve, poor fit] | – |
| Cn1ccc(-c2cc(C(=O)O)c3ccccc3n2)n1 | inconclusive: 19 µM [inhibitor, partial curve] | – |
| O=C1Nc2cc(C(=O)NCCCN3CCCC3)ccc2S/C1=C/c1ccccc1F | inconclusive: 37.9 µM [inhibitor, single point] | – |
| CCOC(=O)CSc1nc2sc3c(c2c(=O)n1Cc1ccccc1)CCC(C(C)(C)C)C3 (centres undefined) | – | inactive: 3.41% |
| CC1CCCN(CCCNC(=O)c2ccc(NC(=O)C3=CSCCO3)cc2)C1 (centres undefined) | – | inactive: 0.287% |
| Cc1cc(-c2c(C)[nH]n(-c3ccc(Cl)cc3)c2=O)n[nH]1 | inconclusive: 37.9 µM [inhibitor, single point] | – |
| Cc1c(CNCc2ccc(OC(C)C)cc2)c(C(=O)O)c(C)n1Cc1ccc(Cl)cc1 | – | inactive: -1.53% |
| COc1ccc(N(C(=O)c2ccccc2F)S(=O)(=O)c2ccc3c(c2)n(C)c(=O)n3C)cc1 | – | inactive: -1.92% |
| Cc1ccc(/C=C2\SC(N)=NC2=O)s1 | inconclusive: 7.57 µM [inhibitor, partial curve] | – |
| Cc1ccc(OCC(=O)N/N=C\c2c(C)n(C)c3ccccc23)c([N+](=O)[O-])c1 | inconclusive: 15.1 µM [inhibitor, partial curve, poor fit] | – |
| CCOc1ccc(CNC(=O)c2ccc3c(c2)nc2n3CCOC2)cc1 | – | inactive: -13.3% |
| O=C(Nc1ncc(Cc2cccc(C(F)(F)F)c2)s1)C1CCCO1 (centres undefined) | inconclusive: 37.9 µM [inhibitor, partial curve, poor fit] | – |
| CC(C)(C)C(=O)N1CCN(c2ccc([N+](=O)[O-])cc2-n2cccc2)CC1 | – | inactive: 0.595% |
